Measurements from PubChem BioAssay AID485313 (National Center for Advancing Translational Sciences (NCATS), 2010).
About 7,600 (2.4%) of roughly 320,000 compounds were called active. The shares of active, inactive and inconclusive entries below differ from those in the screen. The call rests on the fitted dose curve; in most records, active means well fitted activation curve with a large enough effect; inconclusive means small, poorly fitted or top-dose-only effect; inactive means no such curve, though single readings can be large or run the other way. Where the call is inconclusive, the potency comes from a doubtful curve fit.

Experiment: qHTS Assay for NPC1 Promoter Activators; further: nearly all actives have a fitted effect of over 60% in size;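 on activation: reporter is driven by a mutant NPC1 promoter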
Details: Huh7 NPC1 promoter luciferase reporter, 24 h; series mostly up to 9.22 µM
Outline: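 Quantitative HTS used a cell-based reporter: Huh7 cells stably bearing the NPC1 promoter upstream of luciferase were treated with compounds for 24 h, and promoter activation was read as luminescence.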
Potency means the concentration at half of the fitted maximal effect; tags describe the fitted curve by direction and shape.

Potency, inactive:
COc1cc(/C=N/NC(=O)c2cccnc2)cc2c1OCO2
CCC1=C([N+](=O)[O-])C(c2ccc3c(c2)OCO3)NC(=O)N1 (configuration not stated)
CCOc1ccccc1Oc1nc(-c2ccccc2O)nc2ccccc12
CC(C)(C)c1cc(C(=S)N2CCCC2)cc(C(C)(C)C)c1O
COc1ccc(N(CC(=O)N2CCOCC2)S(C)(=O)=O)cc1Cl

Potency, inconclusive:
CN1CCN(C(=O)c2cc(-c3cccc(Cl)c3)on2)CC1 2.82 µM [activator, partial curve]
Nc1ccccc1SCC(=O)N1CCc2ccccc21 3.16 µM [activator, single point]
Cc1ccc(S(=O)(=O)Nc2cccc(-c3ccc(N4CCCCCC4)nn3)c2)c(C)c1 5.62 µM [activator, single point]
CSc1ccc(/C=N/N2CCN(C)CC2)cc1 2.51 µM [activator, partial curve]
O=c1/c(=C\c2ccc(F)cc2)sc2n1CCCN=2 3.55 µM [activator, single point]
O=C(NCCc1ccccc1)c1c(O)c2ccccc2[nH]c1=O 3.55 µM [activator, partial curve]
CC1(C)C=Cc2cc3ccc(=O)oc3cc2O1 3.16 µM [activator, partial curve]
Cc1ccc(/C=N\NC(=O)c2ccc3c(c2)OCO3)o1 3.98 µM [activator, partial curve]
O=C(NC(=S)Nc1ccccc1Br)C1CCCC1 3.55 µM [activator, single point]
Cc1onc(NC(=O)c2ccc(Cl)cc2Cl)c1Br 3.16 µM [activator, partial curve]
CCn1cnc2sc(C(=O)Nc3ccc4c(c3)OCO4)c(C)c2c1=O 3.16 µM [activator, partial curve]
Fc1ccc2nc(Nc3nc4c(s3)CCCC4)sc2c1 5.62 µM [activator, single point]

Potency, active:
CC(=O)c1cccc(NC(=O)c2ccc3c(c2)CCCC3)c1 2.51 µM
O=C(Nc1nc2ccccc2s1)Nc1ccc(F)cc1F 1 µM
O=C(Nc1ccc2c(c1)OCCO2)Nc1ccc2c(c1)OCO2 0.398 µM
Cc1c(Cl)ccc2sc(NC(=O)c3ccco3)nc12 2.82 µM
COc1cccc2cc(-c3csc(NC(=O)CCC(=O)NCCCN4CCC(C)CC4)n3)c(=O)oc12 1.41 µM
